Test results reported in patent US20230121867A1, “COMPOSITIONS AND METHODS FOR TREATING DISEASES AND CONDITIONS BY DEPLETION OF MITOCHONDRIAL OR GENOMIC DNA FROM CIRCULATION” (Cedars-Sinai Medical Center, priority 2019, published 2023).

Key:
[1] = system: complement C3 and anaphylatoxin C3a in CAF; test: Complement C3 and anaphylatoxin C3a expression in CAF (western blot); type: cell-based
[2] = system: CAF; test: Reactive oxygen detection in CAF by DCFDA (FACS, fluorescence microscopy); type: cell-based; conditions: CpG-ODN alone, N-acetylcysteine with LNCaP-CM
[3] = system: plasma mtDNA content; test: Plasma mtDNA in mice treated with docetaxel; type: in vivo, mouse; conditions: 6 mg/kg/week for three weeks, P < 0.05
[4] = system: LNCaP and PC3; test: Western blot of autophagy, mitophagy and ER-stress markers after docetaxel
[5] = system: PC3 and CAF co-culture; test: 3D organotypic co-culture of PC3 and CAF, EpCAM+/Ki67+ FACS; type: cell-based; conditions: PC3 and CAF 3D co-culture, 48 hours
[6] = system: circulating mtDNA in the PCa patients; test: Plasma mtDNA in PCa patients before and during docetaxel treatment; type: in vivo, human; conditions: pre-treatment versus undergoing docetaxel, paired, P = 0.006
[7] = system: xenografts of CAF and PC3 cells; test: Subcutaneous xenograft of PC3 and CAF in male nude mice
[8] = system: LNCaP, PC3, and TRAMPC2 cells; test: mtDNA secretion by PCa cell lines treated with docetaxel; type: cell-based
[9] = system: LNCaP cells; test: mtDNA content of LNCaP media under dynamin inhibition; type: cell-based; conditions: increasing doses of dynasore

Nc1nc[nH]n1 [3-Amino-1,2,4-triazole]
C3a generation ([1]; catalase inhibitor 10 mM combined with CpG-ODN): no effect

CC(=O)N[C@@H](CS)C(=O)O [N-acetylcysteine]
reactive oxygen signal (DCFDA) [2]: suppressed LNCaP-induced reactive oxygen as well as C3a generation | conversion of C3 to C3a induced by LNCaP-CM ([1]; LNCaP-CM, N-acetylcysteine 10 mM): blocked the conversion of C3 to C3a

CC(=O)O[C@@]12CO[C@@H]1C[C@H](O)[C@@]1(C)C(=O)[C@H](O)C3=C(C)[C@@H](OC(=O)[C@H](O)[C@@H](NC(=O)OC(C)(C)C)c4ccccc4)C[C@@](O)([C@@H](OC(=O)c4ccccc4)[C@H]21)C3(C)C [docetaxel]
plasma mtDNA content [3]: significant elevation | ER-stress proteins p62 and CHOP ([4]; LNCaP and PC3): induction of endoplasmic reticulum (ER)-stress proteins, p62 and CHOP | LC3 activation, p62, and beclin expression ([4]; cytoplasmic and mitochondrial subcellular fractions): elevated LC3 activation, p62, and beclin expression | EpCAM+/Ki67+ proliferative epithelial fraction [5]: did not appreciably reduce | circulating (plasma) mtDNA [6]: dramatic increase | tumor volume ([7]; docetaxel 6 mg/kg/week alone, compared to vehicle): not significantly reduced | activation of TAK1, AKT, and ERK1/2 in tumor tissues ([7]; western blot, docetaxel-treated mice compared to vehicle): activation of TAK1, AKT, and ERK1/2 | PCa release of mtDNA, potentiation [8]: over 5 fold | mtDNA secretion ([8]; dose dependent manner): profoundly elevate

O=C(N/N=C/c1ccc(O)c(O)c1)c1cc2ccccc2cc1O [dynasore]
mtDNA content in the media [9]: no appreciable changes
